EC50 and IC50 data for two molecules are collected here from patent publication US20260048138A1, “NOVEL PI3K AND/OR PIKK INHIBITORS, ANTIBODY-DRUG CONJUGATES COMPRISING THE SAME AND USES THEREOF” (HUTCHMED LIMITED, priority 2024, published 2026).

The subject of one experiment is CEACAM5/6 (H2122 cells). Description: Binding of antibody or ADC to H2122 cells (CEACAM5/6+) by flow cytometry. Particulars: cell binding, MFI by flow cytometry. The procedure:
First of all, HCC1954 cells (HER2 positive, Cat. No. CRL-2338) (purchased from the cell bank of American Type Culture Collection, ATCC) were normally cultured in an RPMI-1640 medium (Gibco, Cat. No. A1049101) with 10% fetal bovine serum (FBS) (Gibco, Cat. No. A5669701) in a cell culture incubator at 37° C. and 5% CO2. […] The dissociated cells were collected, and centrifuged. The cells were resuspended in a staining buffer (PBS (Gibco, Cat. No. C20012500BT)+2% FBS) at 4° C., and were added to a V-bottom 96-well plate (BD Falcon) at 1.0×10^5 cells/well and 50 μL/well. […] The plate was incubated at 4° C. for 1.0 hour. After the centrifugation at 300 g for 5 minutes, the supernatant was aspirated, and the pellet was resuspended in 200 μL/well of staining buffer and washed twice. The PE-labeled anti-human IgG Fc antibody (Biolegend, 410708) diluted in a staining buffer was added at 100 μL/well and incubated in the dark at 4° C. for 45 minutes. […]
Fluorescence signals were detected on a BD FACSCanto™ II flow cytometer (BD Biosciences) to obtain the mean fluorescence intensity (MFI) of the binding of the antibody or antibody-drug conjugate to cells, and the half maximal effective concentration (EC50) values were then obtained using the Log (agonist) vs. response equation in the GraphPad Prism software (GraphPad Software). […]

A further experiment deals with MDA-MB-436 cell line. Kind of experiment: Inhibition of cell proliferation by ADC products in vitro. The class given is cell-based. The note with it: 6 days, read-out: IC50, nM MDA-MB-436 cell line (Nectin-4−). The procedure:
HCC1954 cells (HER2 positive, purchased from the cell bank of ATCC, Cat. No. CRL-2338) were normally cultured in a RPMI-1640 medium (Gibco, Cat. No. A1049101) with 1000 fetal bovine serum (FBS) (Gibco, Cat. No. A5669701) in a cell culture incubator at 37° C. and 500 CO2; and MDA-MB-468 cells (HER2 negative, purchased from Cell Resource Center, Shanghai Academy of Biological Sciences, Chinese Academy of Sciences) were both normally cultured in a DMEM medium with 10% fetal bovine serum (FBS) in a cell culture incubator at 37° C. and 5% CO2. The cells were added to a 96-well plate at 1.0×10^3 cells/well and 100 μL/well and incubated in a cell culture incubator at 37° C. and 500 CO2. […]
The OD450 optical density values were read on an EnVision™ multi-function microplate reader (PerkinElmer), and the inhibition rates (%) of the test antibody-conjugated drugs were calculated. […]
After 6 days of treatment with the antibody-conjugated drugs to be tested, 50 μL/well of CellTiter-Glo® reagent (Promega, Cat. No. G9243) was added to the wells, mixed thoroughly with shaking and incubated for 10 minutes. Chemiluminescence values were read on an EnVision™ multi-function microplate reader (PerkinElmer). […]

B1: mAb1: "the sequences of the heavy chain and light chain of mAb1 can be found in SEQID: 39 and SEQID: 40" (antibody)
heavy: QVQLVQSGAEVKKPGASVKVSCKASGYTFTDYAMHWVRQAPGQRLEWMGLISTYSGDTKYNQNFQGRVTMTVDKSASTAYMELSSLRSEDTAVYYCARGDYSGSRYWFAYWGQGTLVTVSS[human IgG1 constant region not spelt out]
light: DIQMTQSPSSLSASVGDRVTITCQASENIYGALNWYQRKPGKSPKLLIYGASNLATGMPSRFSGSGSGTDYTFTISSLQPEDIATYYCQQVLSSPYTFGGGTKLEIKRTVAAPSVFIFPPSDEQLKSGTASVVCLLNNFYPREAKVQWKVDNALQSGNSQESVTEQDSKDSTYSLSSTLTLSKADYEKHKVYACEVTHQGLSSPVTKSFNRGEC
On to B1, for which, in the experiment on CEACAM5/6 (H2122 cells), the EC50 is 7.94 nM.

B2: ADC-34 (conjugate)
heavy: EVQLVESGGGLVQPGGSLRLSCAASGFTFSSYNMNWVRQAPGKGLEWVSYISSSSSTIYYADSVKGRFTISRDNAKNSLSLQMNSLRDEDTAVYYCARAYYYGMDVWGQGTTVTVSSASTKGPSVFPLAPSSKSTSGGTAALGCLVKDYFPEPVTVSWNSGALTSGVHTFPAVLQSSGLYSLSSVVTVPSSSLGTQTYICNVNHKPSNTKVDKRV[human IgG1 Fc not spelt out]
light: DIQMTQSPSSVSASVGDRVTITCRASQGISGWLAWYQQKPGKAPKFLIYAASTLQSGVPSRFSGSGSGTDFTLTISSLQPEDFATYYCQQANSFPPTFGGGTKVEIKRTVAAPSVFIFPPSDEQLKSGTASVVCLLNNFYPREAKVQWKVDNALQSGNSQESVTEQDSKDSTYSLSSTLTLSKADYEKHKVYACEVTHQGLSSPVTKSFNRGEC
Turning to B2, the IC50 with MDA-MB-436 cell line came out at 15.3 nM.
